In the supplement of paper PMC9446081 one finds relative growth data, which are given here for 36 molecules.

In all, about 39,000 compounds went through this assay and about 220 (0.56%) showed activity. The list shows a part of the results.
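Also: static incubation at 37 °C against the wild-type strain, values averaged over two biological replicates.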

The test deals with Escherichia coli K-12 BW25113. Description: relative growth (OD600 normalised to plate interquartile mean) (fraction); higher = less growth inhibition, active = 0.2 or less. As to conditions: 50 µM; LB; incubation time: overnight (16-24 h).
Take `CN1CCN(C(=O)C[C@@H]2C=C[C@H](NC(=O)Cc3ccccn3)[C@@H](CO)O2)CC1`: the relative growth is inactive: 1.01.

Regarding `CNCCC(Oc1ccc(C(F)(F)F)cc1)c1ccccc1.Cl` (stereo unspecified), the relative growth was inactive: 0.963.

Consider `NC(CO)(CO)CO.O=C(c1ccccc1)c1ccc2n1CCC2C(=O)O` (stereo unspecified), for which the relative growth was inactive: 0.914.

With `[N-]=[N+]=NCc1ccccc1C[C@@]1(C(=O)N2CCCCC2)N=C(c2ccc(OCCCO)cc2)O[C@@H]1c1ccccc1`, the relative growth was inactive: 1.03.

Consider `C[C@H]1CCCCO[C@@H](CN(C)C(=O)Nc2ccc(C(F)(F)F)cc2)[C@@H](C)CN([C@@H](C)CO)C(=O)c2cc(NS(=O)(=O)c3cccs3)ccc2O1`, for which the relative growth is inactive: 1.02.

`CC(C)NC(=O)N(C)C[C@@H]1OCCCC[C@@H](C)Oc2ccc(NC(=O)Nc3ccccc3)cc2C(=O)N([C@@H](C)CO)C[C@H]1C`: the relative growth was inactive: 1.

`C[C@H](CO)N1C[C@H](C)[C@@H](CN(C)C(=O)Nc2ccccc2)Oc2ccc(NC(=O)CCN3CCOCC3)cc2C1=O`: the relative growth was inactive: 0.964.

For `Cc1noc(C)c1NC(=O)Nc1ccc2c(c1)C(=O)N([C@@H](C)CO)C[C@@H](C)[C@@H](CN(C)S(=O)(=O)c1ccccc1)OCCCC[C@H](C)O2`, the relative growth was inactive: 0.998.

With `C[C@@H]1CCCCO[C@@H](CN(C)C(=O)c2ccccc2)[C@H](C)CN([C@@H](C)CO)C(=O)c2cc(NS(=O)(=O)c3ccc(F)cc3)ccc2O1`, the relative growth was inactive: 1.

On to `COc1ccccc1C#Cc1cnc2c(c1)C(=O)N([C@H](C)CO)C[C@@H](C)[C@H](CN(C)C(=O)c1ccc3c(c1)OCO3)O2`, for which the relative growth is inactive: 1.01.

As to `C[C@@H]1CCCCO[C@@H](CN(C)Cc2ccncc2)[C@H](C)CN([C@@H](C)CO)C(=O)c2cc(NC(=O)Nc3ccc(C(F)(F)F)cc3)ccc2O1`, the relative growth was inactive: 0.995.

As to `C[C@@H]1CN([C@@H](C)CO)C(=O)Cc2cc(NC(=O)Cc3cn(C)c4ccccc34)ccc2O[C@@H]1CN(C)Cc1ccc(Oc2ccccc2)cc1`, the relative growth is inactive: 1.

For `Cc1ccc(S(=O)(=O)N[C@H](C(=O)NCCn2cc(-c3cccc(/C=C/C(=O)NO)c3)nn2)C(C)C)cc1`, the relative growth is inactive: 0.999.

As for `COC(=O)[C@@H](Cc1ccc(-n2cc(-c3ccc(C(=O)NO)s3)nn2)cc1)N1CC2=C[C@H](C3CC3)n3c(=O)n(C)c(=O)n3[C@@H]2[C@H]1[C@H](O)Cc1ccccc1`, the relative growth was inactive: 1.

With `C[C@@H]1CN([C@@H](C)CO)C(=O)c2cc(NC(=O)NC3CCCCC3)ccc2O[C@@H](C)CCCCO[C@@H]1CN(C)S(=O)(=O)c1ccccc1`, the relative growth was inactive: 0.991.

Consider `C[C@H](CO)N1C[C@H](C)[C@@H](CN(C)Cc2ccc(Cl)c(Cl)c2)Oc2ccc(NC(=O)Nc3ccc(F)cc3)cc2C1=O`, for which the relative growth is inactive: 0.99.

As to `C[C@@H]1CN([C@H](C)CO)C(=O)c2cccc(NC(=O)C3CC3)c2O[C@@H]1CN(C)C(=O)Nc1ccc2c(c1)OCO2`, the relative growth is inactive: 0.976.

As to `COCCOC(=O)N1C(=O)[C@@]2(c3cc(C#CCNC(N)=O)ccc31)[C@H](c1ccc(O)cc1)N1[C@H](c3ccccc3)[C@H](c3ccccc3)OC(=O)[C@H]1[C@@H]2C(=O)N1CCc2cc(OC)c(OC)cc2C1`, the relative growth was inactive: 1.01.

With `C[C@H]1CN([C@@H](C)CO)C(=O)Cc2cc(NS(=O)(=O)c3ccc(Cl)cc3)ccc2O[C@H]1CN(C)Cc1ccc(Oc2ccccc2)cc1`, the relative growth is inactive: 0.983.

`C[C@H]1CN([C@@H](C)CO)C(=O)c2cc(NS(=O)(=O)c3cn(C)cn3)ccc2O[C@H]1CN(C)CC1CC1`: the relative growth is inactive: 0.979.

As for `CCCNC(=O)Cn1c(=O)n(C)c2ccccc21`, the relative growth is inactive: 1.01.

Take `C[C@@H]1CCCCO[C@@H](CN(C)Cc2ccc3c(c2)OCO3)[C@H](C)CN([C@H](C)CO)C(=O)c2cc(NC(=O)Nc3ccc(C(F)(F)F)cc3)ccc2O1`: the relative growth was inactive: 1.01.

As for `C[C@@H]1CCCCO[C@H](CN(C)Cc2ccc(C(=O)O)cc2)[C@@H](C)CN([C@@H](C)CO)C(=O)c2cc(NC(=O)Nc3cccc4ccccc34)ccc2O1`, the relative growth is inactive: 1.02.

Regarding `C[C@@H]1CN([C@@H](C)CO)C(=O)Cc2cc(NC(=O)CCC(F)(F)F)ccc2O[C@H]1CN(C)Cc1ccc(Oc2ccccc2)cc1`, the relative growth was inactive: 0.966.

`C[C@H]1CN([C@@H](C)CO)C(=O)c2cc(NC(=O)Cc3cn(C)c4ccccc34)ccc2O[C@H]1CN(C)Cc1ccc(Cl)c(Cl)c1`: the relative growth is inactive: 1.01.

With `C[C@H](CO)N1C[C@H](C)[C@@H](CN(C)C(=O)Nc2ccc(F)cc2)Oc2c(NS(=O)(=O)c3cn(C)cn3)cccc2C1=O`, the relative growth is inactive: 0.958.

On to `O=c1[nH]cnc2nc[nH]c12`, for which the relative growth was inactive: 1.05.

In the case of `C[C@@H]1CN([C@H](C)CO)C(=O)c2cc(NC(=O)CCC(F)(F)F)ccc2O[C@@H](C)CCCCO[C@H]1CN(C)C(=O)Cc1ccccc1`, the relative growth is inactive: 0.989.

Regarding `C[C@H](CO)N1C[C@H](C)[C@H](CN(C)S(=O)(=O)c2ccc(F)cc2)Oc2c(NS(=O)(=O)c3ccc(F)cc3)cccc2C1=O`, the relative growth is inactive: 1.02.

For `COc1ccc(NC(=O)N(C)C[C@@H]2OCCCC[C@@H](C)Oc3ccc(NS(=O)(=O)c4c(C)noc4C)cc3C(=O)N([C@H](C)CO)C[C@@H]2C)cc1`, the relative growth was inactive: 0.992.

On to `C[N+](C)(C)CCCC[C@@H]1NC(=O)[C@@H]2C[C@H](C(=O)NCCCCCCNC(=O)CS)[C@H](c3ccc(O)cc3)N2C1=O`, for which the relative growth was inactive: 1.02.

As for `C[C@@H]1CN([C@H](C)CO)C(=O)c2cccc(NC(=O)c3cnccn3)c2O[C@@H]1CN(C)C(=O)Nc1ccc(F)cc1`, the relative growth is inactive: 0.949.

For `Cc1ccc(CN(CCO)CCO)cc1`, the relative growth is inactive: 1.01.

For `C[C@@H]1CCCCO[C@H](CN(C)S(=O)(=O)c2cn(C)cn2)[C@H](C)CN([C@H](C)CO)C(=O)c2cc(NS(=O)(=O)c3ccccc3)ccc2O1`, the relative growth is inactive: 0.984.

On to `C[C@@H]1CN([C@H](C)CO)C(=O)c2cc(-c3ccc(C(=O)N(C)C)cc3)cnc2O[C@@H]1CN(C)C(=O)c1cccnc1`, for which the relative growth is inactive: 0.985.

Take `COc1ccc(S(=O)(=O)Nc2cccc3c2O[C@@H](CN(C)S(=O)(=O)c2ccccc2)[C@@H](C)CN([C@H](C)CO)C3=O)cc1`: the relative growth was inactive: 1.02.
